Results taken from paper PMC6919601, “Identification of Plasmodium dipeptidyl aminopeptidase allosteric inhibitors by high throughput screening” (PLoS ONE, 2019).
Out of some 110,000 compounds screened, about 230 (0.21%) showed an effect of 50% or more. This is one part of the list.

Biological target: DPAP1 (Plasmodium falciparum, UniProt Q8IIJ9)
Assay: primary screen, percent inhibition; read by cleavage of a fluorogenic dipeptide substrate; higher = more effect of the substance
Design: species or system P. falciparum D10 trophozoite lysates; single well
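Note: 30 min substrate incubation versus DMSO and 10 µM JCP410 controls.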

Sequence of DPAP1 (Q8IIJ9 whole entry, looked up): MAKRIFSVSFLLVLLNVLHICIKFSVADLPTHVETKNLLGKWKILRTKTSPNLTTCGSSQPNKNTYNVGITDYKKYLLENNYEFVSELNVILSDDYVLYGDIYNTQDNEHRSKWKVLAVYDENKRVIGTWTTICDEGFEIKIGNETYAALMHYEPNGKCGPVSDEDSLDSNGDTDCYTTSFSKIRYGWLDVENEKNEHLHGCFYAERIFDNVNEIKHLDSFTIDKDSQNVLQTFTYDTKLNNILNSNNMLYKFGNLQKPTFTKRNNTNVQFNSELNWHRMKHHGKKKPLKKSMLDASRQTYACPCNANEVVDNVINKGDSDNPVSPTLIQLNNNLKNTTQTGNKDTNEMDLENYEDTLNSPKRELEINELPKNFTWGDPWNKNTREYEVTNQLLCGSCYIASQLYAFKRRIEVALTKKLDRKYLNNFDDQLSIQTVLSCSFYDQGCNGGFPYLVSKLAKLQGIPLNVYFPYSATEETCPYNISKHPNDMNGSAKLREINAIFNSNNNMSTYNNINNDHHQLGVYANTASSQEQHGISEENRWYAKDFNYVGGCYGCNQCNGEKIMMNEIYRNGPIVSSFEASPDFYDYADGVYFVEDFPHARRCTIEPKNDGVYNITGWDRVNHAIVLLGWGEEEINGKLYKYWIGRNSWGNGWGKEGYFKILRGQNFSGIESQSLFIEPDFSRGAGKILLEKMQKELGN

SMILES	% Inhibition @ 10 uM
CSc1ccc(/C=C(/NC(=O)c2ccccc2)C(=O)N2CCN(C)CC2)cc1	-1.37%
COC(=O)c1ccc(C2c3c(oc4ccc(F)cc4c3=O)C(=O)N2c2nc(C)c(C(C)=O)s2)cc1 (stereo not drawn)	-1.33%
CC(=O)c1c(C)oc2c1cc(O)c1ccccc12	9.02%
COc1ccccc1OCCSc1nc(-c2ccccc2)nc2cc(=O)[nH]n12	-3.04%
CCOC(=O)N1CCN(c2c(NCCc3ccc(Cl)cc3)c(=O)c2=O)CC1	-3.21%
CN1CCc2nc(SCc3ccccc3C(F)(F)F)c(C#N)cc2C1	5.54%
CN(Cc1ccccc1)C(=O)C1c2ccccc2C(=O)N(C)C1c1cccs1 (stereo not drawn)	-9.05%
Cc1ccc(/C=C/c2nc3ccccc3s2)s1	-0.0938%
COc1ccc(-c2onc(C)c2C)cc1S(=O)(=O)NCc1ccc(OC(C)C)cc1	1.73%
COc1cc(/C=C2\NC(=O)N(Cc3ccccc3F)C2=O)ccc1OC(C)C(=O)O (stereo not drawn)	-2.19%
CCN(CC)CCN(CC)Cc1c(F)cccc1F	-0.0648%
O=C1CC(N2CCCCC2)C(=O)N1c1ccc(Cl)c(C(F)(F)F)c1 (stereo not drawn)	6.05%
Cc1nn(-c2ccccc2)c2cc(Cl)c([N+](=O)[O-])cc12	3.15%
CCOc1cc2c(cc1OCC)C(c1ccc(F)c(OC)c1)NCC2 (stereo not drawn)	0.231%
CCCOc1cccc(NC(=O)OC2CCN(C)CC2)c1	-15.4%
CCc1nc2c(sc3nc(C)cc(COC)c32)c(=O)n1CCN(CC)CC	7.16%
CC(C)n1c(N2CCN(C)CC2)nc2c1c(=O)[nH]c(=O)n2C	5.51%
Cc1ccc(Oc2nc3c(C)cccn3c(=O)c2/C=C(\C#N)S(=O)(=O)c2ccc(Cl)cc2)cc1	-3.23%
Cc1ccccc1CSCC(=O)NC1CCCC1	2.15%
CC1CCC2C(C1)Nc1c(C(=O)O)cccc1C2(C)C (stereo not drawn)	-2.97%
c1nc(N2CCOCC2)c2c3c(sc2n1)CCCC3	23.9%
CCOc1ccc(CNCc2c(C(=O)O)c(C)n(Cc3ccc(F)cc3)c2C)cc1OC	2.99%
Cc1ccc(CNC(=O)C(C)n2c3ccccc3c3cnnc(O)c32)cc1 (stereo not drawn)	-5.63%
O=S1(=O)N=C(Nc2cccc3ccccc23)c2ccccc21	2.6%
Cc1ccccc1NC(=O)CC(NC(=O)C(F)(F)F)c1ccccc1 (stereo not drawn)	1.9%
CC1(C)CC(O)=C/C(=N/c2ccc(Oc3ccccc3)cc2)C1	3.19%
O=C(O)C1C2C=CC(O2)C1C(=O)Nc1ccc(Cl)c(Cl)c1 (stereo not drawn)	-5.46%
